Screen size: about 5,400 compounds; about 190 (3.5%) showed an effect of 50% or more. The list shows a part of the results.
Tested on: Vero-E6
Assay: primary screen, phospholipidosis by LipidTOX staining; higher = more effect of the substance
Conditions: 10 µM
Method: To measure drug-induced PLD in Vero-E6 cells, we used the HCS LipidTOX Red Phospholipidosis Detection Reagent (Invitrogen, #H34351), which is non-toxic to cell growth and remains well retained after aldehyde fixation. In this setup, compounds (at 10 μM concentration) and controls (amiodarone: 10 μM concentration; DMSO: 0.1 v/v %) were added to clear-bottom, 384-well plates (PhenoPlate 384-well, black, optically clear flat bottom, tissue-culture treated, Revvity #6057302) using the Echo Liquid Handler (Labcyte).

| Compound | result_ITMP [%] |
| --- | --- |
| CCN(CC)Cc1nccn1-c1ccc([N+](=O)[O-])cc1C(=O)c1ccccc1Cl | 7.66 |
| Fc1cccc(/C=N/N=C/c2cccc(F)c2)c1 | 0.14 |
| O=C(O)/C=C/c1ccc(Cn2ccnc2)cc1 | -0.75 |
| Cc1nc(N)sc1CCN | -2.17 |
| CNC(=O)c1cc(COc2nnc(Nc3ccc(Cl)cc3)c3ccoc23)ccn1 | -0.18 |
| C[CH2][Hg][S]c1ccccc1C(=O)[O-] | 6.82 |
| Cc1ccc(N2CCN(CCC3NC(=O)c4ccccc43)CC2)cc1C (centres unmarked) | -1.46 |
| Cc1cc(C)cc(C(=O)NOCCCCCC(=O)NO)c1 | -7.42 |
| CCn1nc(C(=O)O)c(=O)c2cc3c(cc21)OCO3 | -0.04 |
| COc1cc2c(cc1OC)C(c1ccc(N)cc1)=NNC(=O)C2 | 1.02 |
| CCCCN1CCC(CCC(=O)c2cc(Cl)c(N)cc2OC)CC1 | 5.01 |
| Cc1cc(/C=C/c2ccc3cc(N(C)C)ccc3[n+]2C)c(C)n1-c1ccccc1 | -6.02 |
| COCCOC(=O)C1=C(C)NC(C)=C(C(=O)OC/C=C/c2ccccc2)C1c1cccc([N+](=O)[O-])c1 (centres unmarked) | -3.49 |
| C=C[C@H]1C[N@]2CC[C@H]1C[C@@H]2[C@H](O)c1ccnc2ccccc12 | 0.13 |
| O=S1(=O)OC(c2ccc(O)cc2)(c2ccc(O)cc2)c2ccccc21 | -2.78 |
| OC12C3C4CC5C6C4C1C6C(C53)N2CCc1cccc(F)c1 (centres unmarked) | 4.29 |
| CC(C)(Oc1ccc(C(=O)c2ccc(Cl)cc2)cc1)C(=O)O | -3.84 |
| O=C1c2ccccc2C(Cc2ccnc(F)c2)(Cc2ccnc(F)c2)c2ccccc21 | 4.43 |
| Cc1cc([C@@H](C)Nc2ccccc2C(=O)O)c2nc(N3CCOCC3)cc(=O)n2c1 | -1.81 |
| CC(C)(N)c1nc(-c2ccc(OC(F)(F)F)cc2)c[nH]1 | 42.8 |
| CCCN(CCC)C(=O)C1=Cc2ccc(-c3ccc(C(=O)N4CCCC4)cc3)cc2N=C(N)C1 | 9.89 |
| O=C(NCCO[N+](=O)[O-])c1cccnc1 | 4.11 |
| CC(C)(Cc1ccc2ccccc2c1)NC[C@@H](O)COc1cccc(Cl)c1C#N | -10.6 |

| Compound | result_ITMP [%] |
| --- | --- |
| O=C(c1cn(Cc2cncn2Cc2ccc(Br)cc2)cc1-c1cccc2ccccc12)N1CCOCC1 | -0.05 |
| CN(C)CCOc1ccc(/C(=C(/CCCl)c2ccccc2)c2ccccc2)cc1 | 20.4 |
| CC(C(=O)O)c1ccc(N2Cc3ccccc3C2=O)cc1 (centres unmarked) | -3.93 |
| Cc1cc(Nc2ncnc3ccc(-c4ccc(CNCCS(C)(=O)=O)o4)cc23)ccc1Oc1ccn2ncnc2c1 | 48.5 |
| Cc1nc(C#Cc2ccnc(Cl)c2)c(C)n1-c1ccc(F)cc1 | 0.4 |
| Cc1ncc(NC(=O)c2ccc(CN3CCN(C)CC3)c(C(F)(F)F)c2)cc1Nc1nccc(-c2cccnc2)n1 | 9.33 |
| COC1CCN(c2cccc(-c3cc(NC(C)=O)nc(-n4nc(C)cc4C)n3)n2)CC1 | 0.24 |
| Nc1ncnc2c1ncn2C1OC2COP(=O)([O-])OC2C1O (centres unmarked) | -10.8 |
| O=C(O)CCCCCCNC1c2ccccc2CCc2ccccc21 | 0.29 |
| Cc1cccc(COc2cccc(/C=C3\C(=O)NN(c4ccccc4)C3=O)c2)c1 | -0.83 |
| Oc1ccc(OCc2ccccc2)cc1 | -11.6 |
| N=C1NC(=O)N2CC12 (centres unmarked) | -6.93 |
| O=C(NCC(=O)N1CCCCC1)Nc1ccc2nnsc2c1 | -0.73 |
| NC(=O)C[S@@](=O)C(c1ccccc1)c1ccccc1 | 0.14 |
| CNC(=O)[C@H](Cc1c[nH]c2ccccc12)NC(=O)[C@@H](CC(=O)NO)CC(C)C | -8.58 |
| CCCCC[C@H](O)/C=C/[C@@H]1[C@@H](C/C=C\CCCC(=O)O)[C@@H](O)C[C@H]1O | 1.08 |
| CC(C)(Cc1c[nH]c2ccc(Cl)cc12)NCCOc1ccccc1OCC1CC1 | 48.5 |
| Nc1nc2ccc(Cl)cc2c2nc(-c3ccco3)nn12 | 2.92 |
| CCNC(=O)NS(=O)(=O)c1sc(CC(C)C)cc1-c1ccc(Cn2c(-c3ccccc3)nc(OC)c2C=O)cc1 | -0.82 |
| CC1(C)CCC(C)(C)c2cc(Cn3cccn3)c(/C=C/c3ccc(C(=O)O)cc3)cc21 | -1.86 |
| CCC(C)N(C)C(=O)c1cc2ccccc2c(-c2ccccc2Cl)n1 (centres unmarked) | -9.34 |
| Cc1cccc([C@H](C)c2cnc[nH]2)c1C | 2.46 |
| COc1cc2c(cc1C(F)(F)F)N(C(=O)Nc1cc(F)cc(-c3cccnc3)c1)CC2 | -2.05 |

| Compound | result_ITMP [%] |
| --- | --- |
| C#CC[C@H](c1nc2cc(Cl)ccc2c(=O)n1Nc1ccccc1)N(CCCN)C(=O)c1cccc(Cl)c1F | 68.4 |
| CC(=O)C(=Cc1cc(O)c(O)c([N+](=O)[O-])c1)C(C)=O | -0.23 |
| C[C@@H]1CCN(C(=O)CC#N)C[C@@H]1N(C)c1ncnc2[nH]ccc12 | -5.28 |
| Cc1cc2c(F)c(Oc3ncnn4cc(OC[C@@H](C)OC(=O)[C@H](C)N)c(C)c34)ccc2[nH]1 | 2.28 |
| CO/N=C(\C(=O)N[C@@H]1C(=O)N2C(C(=O)[O-])=C(COC(C)=O)CS[C@H]12)c1csc(N)n1 | -7.3 |
| CC(NCCC(c1ccccc1)c1ccccc1)c1ccccc1 (centres unmarked) | 43.7 |
| C[C@@H]1COCCN1c1cc(C2(S(C)(=O)=O)CC2)nc(-c2cccc3[nH]ccc23)n1 | -0.84 |
| CCOC(=O)Nc1cc(-c2ccc(C)c(NS(C)(=O)=O)c2)nn2c(C)nnc12 | 22 |
| Cc1ccc(C[N+](C)(C)C)o1 | 0.45 |
| CS(=O)(=O)Nc1ccc2oc3c(OC(F)F)ccc(C(=O)Nc4c(Cl)cncc4Cl)c3c2c1 | -0.14 |
| CCN(CC)CCc1nc(-c2ccccc2)no1 | 3.95 |
| Cc1cc(-c2nncc3c(C(C)(C)C)c(OCc4ncnn4C)nn23)no1 | -1.71 |
| CN(C)C(=O)CCSC(SCCC(=O)[O-])c1cccc(/C=C/c2ccc3ccc(Cl)cc3n2)c1 (centres unmarked) | -1.04 |
| CCOc1c2c(c(OCC)c3ccccc13)C(=O)N(c1ccc(CC(=O)NS(=O)(=O)c3ccccc3)cc1)C2 | -1.28 |
| CNCC(O)c1ccc(OC(=O)C(C)(C)C)c(OC(=O)C(C)(C)C)c1 (centres unmarked) | -4.47 |
| C/C(=N\NC(=S)NNC(=S)Nc1ccccc1Cl)c1ccccn1 | -0.18 |
| Cc1nccc2c1[nH]c1ccccc12 | 1.05 |
| O=C(NCCO)c1cccc(-c2cc(Nc3ccc(OC(F)(F)F)cc3)ncn2)c1 | -2.64 |
| CC1CCN(C(c2ccc(F)cc2)c2ccc(C(C)C(=O)O)cc2-c2ccc(C(F)(F)F)cc2)CC1 (centres unmarked) | 4.63 |
| O=C(CS(=O)Cc1ccco1)NC/C=C\COc1cc(CN2CCCCC2)ccn1 (centres unmarked) | -4.76 |
| O=S(=O)(O)NC1CCCCC1 | -2.13 |
| CCCCCCCCNC(=O)/C(C#N)=C/c1cn(CCCN(C)C)c2ccccc12 | 10.9 |
| Ac-PHSCN-NH2 | -1.65 |

| Compound | result_ITMP [%] |
| --- | --- |
| OC[C@H]1O[C@H](O)[C@H](O)[C@@H](O)[C@@H]1O | -3.41 |
| CC(C)[C@@H](CN1CC[C@@](C)(c2cccc(O)c2)[C@@H](C)C1)NC(=O)[C@H]1Cc2ccc(O)cc2CN1 | 5.03 |
| Cn1c(NC[C@@H](N)Cc2ccccc2)nc(-c2ccncc2)c(-c2ccc3ccccc3c2)c1=O | 27.9 |
| O=c1oc2ccccc2c(O)c1Cc1c(O)c2ccccc2oc1=O | -5.4 |
| CS(=O)(=O)N1CCc2c(-c3cnc(N)nc3)nc(N3CCOCC3)nc21 | 4.22 |
| Cn1ccc2cc(NC(=O)Nc3cccnc3)ccc21 | -0.64 |
| CN1C(CSCC(F)(F)F)Nc2cc(Cl)c(S(N)(=O)=O)cc2S1(=O)=O (centres unmarked) | 0.28 |
| NC(=S)N/N=C/c1coc2ccccc2c1=O | -1.79 |
| CC(=O)[C@]1(O)Cc2c(O)c3c(c(O)c2[C@@H](O[C@H]2C[C@H](N)[C@H](O)[C@H](C)O2)C1)C(=O)c1ccccc1C3=O | -10.6 |
| C[C@H](Nc1cc(NS(=O)(=O)N2CCC2)nc(SCc2cccc(F)c2F)n1)[C@@H](O)CO | -1.49 |
| CN1CCN(CCCN2c3ccccc3Sc3ccc(Cl)cc32)CC1 | 38.9 |
| CCN(c1ccccc1)c1cc(NC)[n+](C)c(C)n1 | 2.05 |
| COC(=O)CCSCc1ccc(-c2onc(C)c2NC(=O)OC(C)c2ccccc2Cl)cc1 (centres unmarked) | 1.75 |
| Nc1c(S(=O)(=O)[O-])cc(Nc2cccc3ccccc23)c2c1C(=O)c1ccccc1C2=O | -11.1 |
| c1ccc(CNc2nc(NCc3ccccc3)c3ccccc3n2)cc1 | 58.9 |
| CC(=O)OCC(=O)[C@@]1(O)CCC2C3CCC4=CC(=O)C=CC4(C)C3[C@@H](O)C[C@@]21C (some centres unmarked) | -4.54 |
| O=C([O-])C1=C(CSc2nnnn2CS(=O)(=O)[O-])CS[C@@H]2[C@H](NC(=O)[C@H](O)c3ccccc3)C(=O)N12 | 0.51 |
| CCCOc1ccn2c(C(C)=O)cc(-c3ccccc3S(C)(=O)=O)c2c1 | -2.9 |
| CCCN(CCC)C1CCc2cccc(O)c2C1 (centres unmarked) | 1.02 |
| COC(=O)[C@]12CCC(C)(C)C[C@H]1[C@H]1C(=O)C=C3[C@@]4(C)C=C(C#N)C(=O)C(C)(C)[C@@H]4CC[C@@]3(C)[C@]1(C)CC2 | -10.9 |
| CCC(=O)OCN1C(=O)C=CC1=O | -2 |
| CC(/C=C1\SC(=S)N(CC(=O)O)C1=O)=C\c1ccccc1 | -0.12 |
| C[N+](C)(C)CC[N+]1(C)Cc2c(Cl)c(Cl)c(Cl)c(Cl)c2C1 | 2.19 |
